Measurements as given in the supplement of paper PMC10126150.
Sequences with one replicate were seen in a single cluster, so their values are uncertain.
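Further: ATP exposure 15 min at 22 °C before imaging.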

Each sequence was assayed on ATP (assay: switch fluorescence ratio, 500 uM ATP over buffer (Cy3 cluster intensity, sum of 5 cycles each) (fold (ratio)); higher = stronger signal-on switching upon ATP binding; sequences stand for … in TCGTCGGCAGCGTCAGATGTGTATAAGAGACAGTTTTTTTTTTTTTTTTTTTTTTTTT…TC). Settings: aptamer strand: ATP DNA aptamer (quencher-CACCTGGGGGAGTATTGCGGAGGAAGG + anchor), 100 nM annealed; ATP concentration: 500 uM; one replicate.
Procedure, shortened: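 Values give the fluorescence ratio for each switch-domain sequence, averaged from per-cluster ratios of summed target-cycle to summed buffer-cycle Cy3 intensity. The Cy3-labelled switching-strand clusters sat on a modified Illumina MiSeq flow-cell, were annealed to 100 nM quencher-labelled ATP aptamer, and were imaged in selection buffer, then after 15 min with 500 uM ATP at 22 °C. Five cycles ran with NaOH stripping and re-annealing between them, and clusters outside 100-1000 RFU were excluded.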
In the case of ACAATCATT, the switch fluorescence ratio is reported as 1.01. GGGAGAGCAG was tested, and the switch fluorescence ratio was 0.988. In the case of ATCCGTCACG, the switch fluorescence ratio is reported as 1.06. ATGGTATGGG showed a switch fluorescence ratio of 0.991. In the case of CATGAAGGTG, the switch fluorescence ratio is reported as 1.46. Sequence TCCGCAATTT has a switch fluorescence ratio of 1.04. For ATGTGTTATA, the switch fluorescence ratio was 1.07. TCTGAAGGTA was tested, and the switch fluorescence ratio was 1.04. For CCTAATCCC, the switch fluorescence ratio was 1.04. In the case of CCGAGATCTG, the switch fluorescence ratio is reported as 1.06. For GAGGAACAAA, the switch fluorescence ratio was 0.973. Sequence GTGGAAGTGT has a switch fluorescence ratio of 0.983. Work on ACGTTAGATA yielded a switch fluorescence ratio of 1.05. TGTGGATCAA gave a switch fluorescence ratio of 1.02. In the case of GCTTGCATTG, the switch fluorescence ratio is reported as 1.01. With TTTTGACGAT the switch fluorescence ratio was 0.984. Sequence ATTTGCGCTG has a switch fluorescence ratio of 0.987. Sequence TCAAGCAAAG has a switch fluorescence ratio of 1.12. TGGAAGTTCG was tested, and the switch fluorescence ratio was 0.996. With ACCCTTGAAA the switch fluorescence ratio was 0.992. AGGTGGATCT showed a switch fluorescence ratio of 1.02. With TTGGCGACAA the switch fluorescence ratio was 0.985. In the case of TGCTGTAACA, the switch fluorescence ratio is reported as 0.968. Work on TTCATCATTT yielded a switch fluorescence ratio of 1.02. CGCGTAAACG was tested, and the switch fluorescence ratio was 1.02. For AGCAGAGTAT, the switch fluorescence ratio was 0.962. AAATCAGTGT showed a switch fluorescence ratio of 0.999. Work on CTTTCGTTAT yielded a switch fluorescence ratio of 1.04. Sequence CGGGATAGTG has a switch fluorescence ratio of 1.02. Sequence TGGGGTTCCT has a switch fluorescence ratio of 1.03. GATAAATAGC showed a switch fluorescence ratio of 1.07. In the case of GTCGGTCCAA, the switch fluorescence ratio is reported as 1.03. Work on TGGCATGGCG yielded a switch fluorescence ratio of 0.958. GGAAACATGG showed a switch fluorescence ratio of 1.07. For TGATAACTGA, the switch fluorescence ratio was 1.01. GCTCATCGTT showed a switch fluorescence ratio of 0.984. In the case of GACCCAAAGA, the switch fluorescence ratio is reported as 1.17. In the case of CAAATCATTC, the switch fluorescence ratio is reported as 1.05. Sequence CATCTAAGT has a switch fluorescence ratio of 1.01. Work on CCAATAAACT yielded a switch fluorescence ratio of 1. Sequence GCACAAAACG has a switch fluorescence ratio of 1.23. For AAAATAGCA, the switch fluorescence ratio was 0.973. For ATAACGTTT, the switch fluorescence ratio was 1.01. For TTACAGCGCT, the switch fluorescence ratio was 1.04. GAAAGGCGGA showed a switch fluorescence ratio of 1.03. For CAACTATGTA, the switch fluorescence ratio was 1.02. For TTTTCCTAGC, the switch fluorescence ratio was 1. In the case of TAGGTTTCCT, the switch fluorescence ratio is reported as 1.28. ACCACGCTTC was tested, and the switch fluorescence ratio was 1.34. For AGATTGTAGC, the switch fluorescence ratio was 1.02. For GTTGAAAG, the switch fluorescence ratio was 1.01. Work on TAGATTTACT yielded a switch fluorescence ratio of 1.03. TTTGGCCACC was tested, and the switch fluorescence ratio was 1. TACCGGTGAA was tested, and the switch fluorescence ratio was 1.02. With TGTGAGGAAC the switch fluorescence ratio was 1. TGCAACCAAG was tested, and the switch fluorescence ratio was 1.02. Sequence CTCGCATCAA has a switch fluorescence ratio of 1.7. For GGTCGCGCCT, the switch fluorescence ratio was 0.981. Sequence GAAGTCTGCA has a switch fluorescence ratio of 1.06. For GAGCAGATTT, the switch fluorescence ratio was 0.999. GGGATTCATG was tested, and the switch fluorescence ratio was 0.966. Sequence CCAGGCGGGT has a switch fluorescence ratio of 0.98. In the case of TCTTCTGTTA, the switch fluorescence ratio is reported as 1.03. CGGAATCTAG showed a switch fluorescence ratio of 1. With ATGATGGGAG the switch fluorescence ratio was 0.959. For TCGCTCACTG, the switch fluorescence ratio was 1.05. TAGGCTTGTA showed a switch fluorescence ratio of 1. In the case of ATATCCGGAT, the switch fluorescence ratio is reported as 1.03. In the case of ATCCTTATCC, the switch fluorescence ratio is reported as 1.09. With CAACAAGTAA the switch fluorescence ratio was 1.02. In the case of GAATACATCT, the switch fluorescence ratio is reported as 1.01. Sequence TACGTCTGCG has a switch fluorescence ratio of 0.995. Work on TGAAAATGTT yielded a switch fluorescence ratio of 0.998. With CCGATAGTTC the switch fluorescence ratio was 1.49. For TGTCGTATCC, the switch fluorescence ratio was 0.995. TAGCAAAGGA gave a switch fluorescence ratio of 1. TCAGGGTGCA gave a switch fluorescence ratio of 0.987. TTCCGATAAA gave a switch fluorescence ratio of 1.12. With ATAGTGGGTA the switch fluorescence ratio was 0.966. In the case of AAGGGTTCCT, the switch fluorescence ratio is reported as 1.01. GGACGCCTGG was tested, and the switch fluorescence ratio was 0.957. With TACCCATCTT the switch fluorescence ratio was 2.06. In the case of GGAATATATC, the switch fluorescence ratio is reported as 1.04. In the case of ATATTCTGGA, the switch fluorescence ratio is reported as 0.996. In the case of AGCCTAGCCC, the switch fluorescence ratio is reported as 0.996. TGATCGGGAT showed a switch fluorescence ratio of 1.04. ACTGTGACTT was tested, and the switch fluorescence ratio was 1.17. TCGGGTGGC was tested, and the switch fluorescence ratio was 0.951. GTTTCGAAAC showed a switch fluorescence ratio of 1.04. For GTGCAAGAA, the switch fluorescence ratio was 1.41. Sequence TACGTTCCGG has a switch fluorescence ratio of 1.07. With TTGGATAAGT the switch fluorescence ratio was 1. In the case of AGGCCAACCC, the switch fluorescence ratio is reported as 1.03. GGAGTCTTTG was tested, and the switch fluorescence ratio was 1.04. TAGTTGTTCG gave a switch fluorescence ratio of 1.02. TCACAGACTC showed a switch fluorescence ratio of 1.23. With GTGTTGGATT the switch fluorescence ratio was 1. TCGGGTTGCT showed a switch fluorescence ratio of 0.926. Sequence AGCCTGTAT has a switch fluorescence ratio of 0.969. With GATTCCCACT the switch fluorescence ratio was 1.06. Work on GCCAACGGGC yielded a switch fluorescence ratio of 0.958. For CCTAAGGTCC, the switch fluorescence ratio was 1.02. ACTGGTCTGA was tested, and the switch fluorescence ratio was 1.02. Work on CGCTAACCTC yielded a switch fluorescence ratio of 1.61. TACGGTGGAG showed a switch fluorescence ratio of 1.01. For TACGCATT, the switch fluorescence ratio was 1.47. With TTGTTGCGTC the switch fluorescence ratio was 1.07. Work on CATACCTTGC yielded a switch fluorescence ratio of 2.7. With AGCTATCTGG the switch fluorescence ratio was 0.987. Sequence GGTACGAATT has a switch fluorescence ratio of 1.03. AGTGGAAAGG gave a switch fluorescence ratio of 0.995. With AAATGGCCCG the switch fluorescence ratio was 0.98. AAGCTGTATA gave a switch fluorescence ratio of 1.02. AATGTACTCG gave a switch fluorescence ratio of 1.07. With GGAATTAGCA the switch fluorescence ratio was 0.985. ATGTAAAC gave a switch fluorescence ratio of 1.01. Sequence TAATCGCCTC has a switch fluorescence ratio of 1.04. GCGCCCAGCT gave a switch fluorescence ratio of 0.97. Work on TTAACTGTGA yielded a switch fluorescence ratio of 1.03. In the case of GAACAGAAGT, the switch fluorescence ratio is reported as 1.03. In the case of CGGGGTGTCG, the switch fluorescence ratio is reported as 1.15. In the case of CCGAATTCGG, the switch fluorescence ratio is reported as 1. Sequence TGAGATACTA has a switch fluorescence ratio of 1.01. TGGCGTCTTT gave a switch fluorescence ratio of 1.11. For ACATATACAT, the switch fluorescence ratio was 1.14. Sequence AGGGATTCCT has a switch fluorescence ratio of 1.02. With TAACTTAACA the switch fluorescence ratio was 1.08. In the case of TTAGGGGAG, the switch fluorescence ratio is reported as 1.06. With TTGATATTGA the switch fluorescence ratio was 0.988. Work on GGCGATCGAC yielded a switch fluorescence ratio of 0.97. TTCCTACA gave a switch fluorescence ratio of 1.01. With AGGTATTAAT the switch fluorescence ratio was 1.05. TAGGGGTGAC showed a switch fluorescence ratio of 1.02. Sequence ATCAGGATTC has a switch fluorescence ratio of 1.03. With CATGAGATAT the switch fluorescence ratio was 0.961. In the case of ATCATTACTG, the switch fluorescence ratio is reported as 1.08. With CCATCCTTTT the switch fluorescence ratio was 1.44. TCGGTGTACA was tested, and the switch fluorescence ratio was 0.962. Sequence TTCAGGGCGT has a switch fluorescence ratio of 1.01. CGCTAATATG was tested, and the switch fluorescence ratio was 1.49. With TAATTGTTTC the switch fluorescence ratio was 1.02. In the case of AGGATACCAG, the switch fluorescence ratio is reported as 1.06. In the case of AACCCTTGCG, the switch fluorescence ratio is reported as 1.07. For ATGGGTACTT, the switch fluorescence ratio was 1.01. CCTGTAAGTG showed a switch fluorescence ratio of 0.968. With CTTAATCCTA the switch fluorescence ratio was 0.994. AAAGGCCCTC showed a switch fluorescence ratio of 1. Sequence TCGATAAGT has a switch fluorescence ratio of 1.02. AGGCACGCCC was tested, and the switch fluorescence ratio was 0.987. Sequence GGGGTGACGA has a switch fluorescence ratio of 1. Work on TCCAGCGTAG yielded a switch fluorescence ratio of 1.04. With TAGGGAGGG the switch fluorescence ratio was 0.982. Work on TGCACTGATA yielded a switch fluorescence ratio of 1.01. For CTTGGACTGG, the switch fluorescence ratio was 1.01. Sequence CGTGATAGAC has a switch fluorescence ratio of 1.12. AAGCGGCTAT gave a switch fluorescence ratio of 1.02. GTTTCCGTCG gave a switch fluorescence ratio of 1.03. ACCCTTCTCC gave a switch fluorescence ratio of 1.64. Work on TAGGCCATCC yielded a switch fluorescence ratio of 1.05. With TTACTCCGGT the switch fluorescence ratio was 1.85. Sequence TTTGTTAATG has a switch fluorescence ratio of 0.994. In the case of GGCTGCTGGA, the switch fluorescence ratio is reported as 1.1. GTCGCATGGG gave a switch fluorescence ratio of 1.09. CGGCATTCAG gave a switch fluorescence ratio of 1.03. With ATTAAATTTA the switch fluorescence ratio was 1.02. For TAAAGTGGG, the switch fluorescence ratio was 0.967. Work on TTCGGCTGCC yielded a switch fluorescence ratio of 1. Work on TTAACGCTAG yielded a switch fluorescence ratio of 1.06. Sequence CGAGTACCGA has a switch fluorescence ratio of 1.02. TTGATCATTA showed a switch fluorescence ratio of 0.983. Sequence GGCCCCCGCA has a switch fluorescence ratio of 1.76. For GAGCGTTCAT, the switch fluorescence ratio was 0.981. Work on TGGTAATGCC yielded a switch fluorescence ratio of 1.06. With CCACCAAGTT the switch fluorescence ratio was 1.13. For ATAGGGTAAA, the switch fluorescence ratio was 0.965. TACTAATCTC gave a switch fluorescence ratio of 1.08. For TCACTGCCTA, the switch fluorescence ratio was 1.05. TTTGAGGCTG showed a switch fluorescence ratio of 0.959. CCGTGTTTAA was tested, and the switch fluorescence ratio was 1.11. For GTTGTAACTT, the switch fluorescence ratio was 0.967. In the case of ATACTCGAGA, the switch fluorescence ratio is reported as 1.05. Work on GTCGATTTTC yielded a switch fluorescence ratio of 1.01. In the case of TTGTGGGCTC, the switch fluorescence ratio is reported as 1.01. CGAGGACGAC gave a switch fluorescence ratio of 0.97. With AGAGAGTCGC the switch fluorescence ratio was 1.06. ATAGAGCTGT showed a switch fluorescence ratio of 0.958. In the case of GAAACATACT, the switch fluorescence ratio is reported as 1.26. In the case of TTTGTCCAGC, the switch fluorescence ratio is reported as 1.07. Sequence GCACCAGTCG has a switch fluorescence ratio of 1.06. GATAGTAGTG was tested, and the switch fluorescence ratio was 1.02. GCAGCATGTA was tested, and the switch fluorescence ratio was 1.1. CACATACTGC gave a switch fluorescence ratio of 1.46. Sequence CTTGGAATGG has a switch fluorescence ratio of 1.01. ATGATACGTG showed a switch fluorescence ratio of 0.957. For ACTTTCGGCA, the switch fluorescence ratio was 1.06. In the case of TTTATTTTA, the switch fluorescence ratio is reported as 1. In the case of GATGTTCAGA, the switch fluorescence ratio is reported as 0.986. For ACATCGGAGT, the switch fluorescence ratio was 0.997. Work on CAGATGCGCT yielded a switch fluorescence ratio of 0.969. AGTAAGCTAG gave a switch fluorescence ratio of 0.996. CCAGGAGGG gave a switch fluorescence ratio of 1.03.
